Patent publication US20230416360A1 (SIMCERE ZAIMING PHARMACEUTICAL, published 2023)

T1: human CD22-ECD-His (human, UniProt P20273 20-687)
T1 construct: Made in HEK293E, purified on nickel column; also called hCD22-ECD-His; recombinant human CD22-ECD His; not shown: His tag
T1 sequence: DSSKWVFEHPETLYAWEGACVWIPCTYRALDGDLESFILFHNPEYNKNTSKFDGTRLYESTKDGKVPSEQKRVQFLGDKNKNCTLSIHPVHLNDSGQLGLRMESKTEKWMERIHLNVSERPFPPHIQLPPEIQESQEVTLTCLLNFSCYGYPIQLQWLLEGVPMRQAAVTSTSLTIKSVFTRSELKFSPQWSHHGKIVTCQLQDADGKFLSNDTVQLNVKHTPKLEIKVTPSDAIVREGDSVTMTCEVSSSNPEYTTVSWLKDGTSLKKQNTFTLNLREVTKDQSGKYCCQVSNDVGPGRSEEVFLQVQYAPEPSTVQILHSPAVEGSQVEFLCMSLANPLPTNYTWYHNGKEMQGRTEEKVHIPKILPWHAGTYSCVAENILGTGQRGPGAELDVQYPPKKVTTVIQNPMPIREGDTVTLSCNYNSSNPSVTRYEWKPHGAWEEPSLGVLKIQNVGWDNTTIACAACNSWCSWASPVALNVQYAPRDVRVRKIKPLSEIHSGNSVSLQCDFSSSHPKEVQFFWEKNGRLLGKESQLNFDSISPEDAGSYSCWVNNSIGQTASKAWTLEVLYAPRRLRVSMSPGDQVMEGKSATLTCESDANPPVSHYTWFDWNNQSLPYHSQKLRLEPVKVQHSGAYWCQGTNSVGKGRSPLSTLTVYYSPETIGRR

T2: murine CD22-ECD-His (mouse, UniProt P35329 22-708)
T2 construct: extracellular domain; Bought; also called mouse CD22; murine CD22 protein
T2 sequence (looked up): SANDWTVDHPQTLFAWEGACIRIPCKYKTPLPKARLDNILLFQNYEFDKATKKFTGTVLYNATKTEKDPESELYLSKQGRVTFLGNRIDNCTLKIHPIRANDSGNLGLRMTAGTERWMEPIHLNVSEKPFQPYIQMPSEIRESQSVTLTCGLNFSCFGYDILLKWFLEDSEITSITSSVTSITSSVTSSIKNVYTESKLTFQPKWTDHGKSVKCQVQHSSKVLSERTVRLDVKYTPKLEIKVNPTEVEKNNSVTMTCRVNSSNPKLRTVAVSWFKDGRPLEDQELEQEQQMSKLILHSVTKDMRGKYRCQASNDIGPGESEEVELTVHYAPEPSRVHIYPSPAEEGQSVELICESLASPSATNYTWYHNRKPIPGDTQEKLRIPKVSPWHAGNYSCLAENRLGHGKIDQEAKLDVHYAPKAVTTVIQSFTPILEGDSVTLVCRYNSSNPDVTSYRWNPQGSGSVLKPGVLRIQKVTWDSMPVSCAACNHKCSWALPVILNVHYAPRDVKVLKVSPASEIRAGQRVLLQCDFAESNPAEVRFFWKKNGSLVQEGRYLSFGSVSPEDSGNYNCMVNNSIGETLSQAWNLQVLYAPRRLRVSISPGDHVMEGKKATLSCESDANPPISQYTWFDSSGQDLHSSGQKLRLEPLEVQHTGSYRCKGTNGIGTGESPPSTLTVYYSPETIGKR


What was measured:
human CD22-ECD-His [1] = target: T1, human CD22-ECD-His; test: SPR (Biacore), antibody captured on Protein A, hCD22-ECD-His analyte
Experimental: Sample buffer and running buffer were HBS-EP+(10 mM HEPES, 150 mM NaCl, 3 mM EDTA, 0.05% surfactant P20) (GE Healthcare; BR-1006-69). The flow-through cell was set to 25° C. The sample block was set to 16° C. Both were pretreated with the running buffer. In each cycle, the antibody to be tested was first captured with a Protein A chip, then a single concentration of CD22 antigen protein was injected. The binding and dissociation process of the antibody and the antigen protein was recorded, and finally Glycine pH 1.5 (GE Healthcare; BR-1003-54) was used to complete chip regeneration. […] The concentration started from 200 nM (see the detailed results for the actual concentration in the test) and was diluted at 1:1, making a total of 5 concentrations. The dissociation phase was monitored for up to 600 s and was triggered by switching from sample solution to running buffer. The surface was regenerated by washing with a 10 mM of glycine solution (pH 1.5) for 30 s at a flow rate of 30 μL/min. Bulk refractive index difference was corrected by subtracting the response obtained from the goat anti-human Fc surface. Blank injection was also subtracted (=double reference). For calculation of apparent KD and other kinetic parameters, Langmuir 1:1 model was used.

human CD22-ECD-His [2] = target: T1, human CD22-ECD-His; test: ELISA, coated hCD22-ECD-His, antibody 0.0001 nM
Experimental: (§1) The plate was sealed with plastic film and incubated overnight at 4° C., the plate was washed 2 times with PBS the next day, and then a blocking solution [PBS+2% (w/w) BSA] was added for blocking at room temperature for 2 hours. […] After incubation at 37° C. for 2 hours, the plate was washed 3 times with PBS. HRP (horseradish peroxidase)-labeled secondary antibody (purchased from Sigma, catalog number: A0170) was added, and incubated at 37° C. for 2 hours, and the plate was washed 5 times with PBS. TMB substrate was added at 50 μl/well, and incubated at room temperature for 30 minutes, then a stop solution (1.0 N HCl) was added at 50 μl/well.

human CD22-ECD-His [3] = target: T1, human CD22-ECD-His; test: ELISA, antibody coated 2 ug/mL, hCD22-ECD-His titrated
[4] = target: T3, cynomolgus monkey CD22 on peripheral blood B cells (cynomolgus monkey (Macaca fascicularis)); test: FACS, cynomolgus PBMC, CD20+ B cells, antibody 10 nM
T3 construct: whole, on cells; also called cynomolgus monkey B cells
Experimental: (§2) After the cell suspension was centrifuged, the cells were resuspended in PBS containing 1% BSA, and then the cells were counted. […] After washing the cells three times, APC-labeled secondary antibody anti-human IgG Fc (catalog number: 409306, purchased from Biolegend) was added. After incubation at room temperature in the dark for 30 minutes, the cells were washed 5 times, gently resuspended with PBS containing 1% BSA, and detected and analyzed by FACS (FACS Canto™, purchased from BD Company).

human CD22-ECD-His [5] = target: T1, human CD22-ECD-His; test: ELISA, coated hCD22-ECD-His, antibody 0.01 nM
Experimental: as §1

[6] = target: T3, cynomolgus monkey CD22 on peripheral …; test: FACS, cynomolgus PBMC, CD20+ B cells, antibody 100 nM
Experimental: as §2

murine CD22-ECD-His = target: T2, murine CD22-ECD-His; test: ELISA, coated mouse CD22, antibody 0.01 nM
Experimental: as §1

Binder	Kd (human CD22-ECD-His [1]) [nM]	koff (human CD22-ECD-His [1]) [s⁻¹]	kon (human CD22-ECD-His [1]) [M⁻¹ s⁻¹]	OD450 (human CD22-ECD-His [2])	EC80 (human CD22-ECD-His [3]) [nM]	Proportion of VHH-Fc antibody positive cells to B cells (%) [4] [%]	OD450 (human CD22-ECD-His [5])	Proportion of VHH-Fc antibody positive cells to B cells (%) [6] [%]	OD450 (murine CD22-ECD-His)
HA22 scFv-hFc (Fc fusion) EVQLVESGGGLVKPGGSLKLSCAASGFAFSIYDMSWVRQTPEKCLEWVAYISSGGGTTYYPDTVKGRFTISRDNAKNTLYLQMSSLKSEDTAMYYCARHSGYGTHWGVLFAYWGQGTLVTVSAGGGGSGGGGSGGGGSDIQMTQTTSSLSASLGDRVTISCRASQDISNYLNWYQQKPDGTVKLLIYYTSILHSGVPSRFSGSGSGTDYSLTISNLEQEDFATYFCQQGNTLPWTFGCGTKLEIK[human IgG1 Fc with changes cut from this listing]	1.37	0.000112	81500	0.07	0.8	84	0.45	96	–
S002-NB151-2 VHH-Fc (Fc fusion, VHH cloned into vector BI3.4-huIgG1 (hinge and human IgG1 Fc), made in HEK293E; also called 5002-NB151-2) QVQLVESGGGLVQAGDSLRLSCAASGRTFSPSTMAWFRQAPGKERELVARIGWTYGDTYYVDSAKGRFTISMDNVKNTVYLQMNSLKPEDTAVYYCAALFRGGLSYNFSNRGTQVTVSS[human IgG1 Fc with changes cut from this listing]	48.9	0.000827	16900	0.3	20.8	86	1.17	84	0.06
S002-NB151-92 VHH-Fc (Fc fusion, VHH cloned into vector BI3.4-huIgG1 (hinge and human IgG1 Fc), made in HEK293E; also called 5002-NB151-92) QVQLVESGGGLVQSGGSLRLSCAASGFTFSDYTMNWVRQAPGKGLEWVSEISSGGHFKSNADSVKDRFTISRDNAKNTLYLQMNSLKPEDTAVYFCAKCPRPSVYCRDYESTSLYRGQGTQVTVSS[human IgG1 Fc with changes cut from this listing]	25.2	0.00111	44000	0.08	15.6	69	0.71	75	0.05
S002-NB150-159n VHH-Fc (Fc fusion, VHH cloned into vector BI3.4-huIgG1 (hinge and human IgG1 Fc), made in HEK293E; also called S002-NB150-15911) QVQLVESGGGLVQAGDSLRLACEASGRTATISTMGWFRQAPGKEREFVGRIDWSAESTYIVDSVKGRFIISRDNAKNAGYLQMNSLKPVDTAVYYCAAIVVRERSYKYWGQGTQVTVSS[human IgG1 Fc with changes cut from this listing]	2.4	6.95e-05	28900	0.09	5.73	18	0.9	30	0.05
S002-NB151-51 VHH-Fc (Fc fusion, VHH cloned into vector BI3.4-huIgG1 (hinge and human IgG1 Fc), made in HEK293E; also called 5002-NB151-51) QVQLVESGGGLVQAGGSLRLSCAASGITSDDYAIGWFRQAPGKEREGVSCMYSSDGSTYYADSVKGRFTISRDNAKNTVYLQMNSLRPEDTAVYHCAAGPWCFVTGVGREEWGQGTQVTVSS[human IgG1 Fc with changes cut from this listing]	0.52	7.39e-05	142000	0.1	1.6	93	0.6	96	0.69
S002-NB151-23 VHH-Fc (Fc fusion, VHH cloned into vector BI3.4-huIgG1 (hinge and human IgG1 Fc), made in HEK293E; also called 5002-NB151-23) QVQLVESGGGLVQAGGSLTVSCTNSGRTLSTSTIAWFRQKPGKDSEFVAAIRWSGGMGWYADSVKGRFTISRDNAENTVSLQMNTLQPEDTAVYFCAVSTVPYYGSIYTRVGDYPYWGQGTQVTVSS[human IgG1 Fc with changes cut from this listing]	2.33	0.000476	204000	0.25	3.2	88	0.69	94	0.06
S002-NB151-30 VHH-Fc (Fc fusion, VHH cloned into vector BI3.4-huIgG1 (hinge and human IgG1 Fc), made in HEK293E; also called 5002-NB151-30) QVQLVESGGGLVQAGGSLRLSCAASGRASGSGAMGWFRQAPGQERRFVAGIEWSSGGPVYADSVKGRFTLSRDNAKNTVHLQMNSLKPEDTAVYYCAAAPWVFSSPDDYMYWGQGTQVTVSS[human IgG1 Fc with changes cut from this listing]	6.09	0.000514	84300	0.11	8.13	70	0.53	90	0.06
S002-NB151-13 VHH-Fc (Fc fusion, VHH cloned into vector BI3.4-huIgG1 (hinge and human IgG1 Fc), made in HEK293E) QVQLVESGGGLVQAGDSLRLSCAASTRIFRSYVMGWFRQAPGKEREAVASIRWSNDTGTYADSVKGRFTISRDNAKNTVYLQMNSLKPEDTAVYSCAADSPPWGRTWYTGYDYWGQGTQVTVSS[human IgG1 Fc with changes cut from this listing]	0.598	3.58e-05	59800	0.25	80.1	23	0.86	61	–
